The text below walks through data of PubChem BioAssay AID1865 (National Center for Advancing Translational Sciences (NCATS), 2009).

Molecules are shown by their SMILES. The whole screen tested about 280,000 compounds, of which about 540 (0.19%) were called active. Roughly 2% stayed inconclusive and do not appear here. The call rests on the fitted dose curve; in most records, active means well fitted activation curve with a large enough effect; inconclusive means small, poorly fitted or top-dose-only effect; inactive means flat fitted curve, though single readings scatter. Only a part is listed here, and it is no random draw. Some compounds were tested as several samples or in several runs, with calls that do not always agree.
Potency means the concentration at half of the fitted maximal effect.

A short description of the test: Quantitative High-Throughput Screen for Regulators of Epigenetic Control. Further: nearly all actives have a fitted effect of over 60% in size. On GFP activation: % of control where 0% means no effect. To be noted: murine LDR cells, GFP reporter derepression, 30 h; series mostly up to 53.9 µM; GFP activation: at the top concentration. An excerpt:
NIH Molecular Libraries Screening Centers Network [MLPCN] NIH Chemical Genomics Center [NCGC] MLSCN Grant: 1 X01 MH079860-01 Assay Provider: Elisabeth D. Martinez, University of Texas SW Medical Center NCGC Assay Overview: The Locus Derepression (LDR) assay detects the derepression or induction of a GFP reporter that is stably integrated in a genomic region of murine cells that is presumably silenced. Transcription of the GFP reporter is controlled by a CMV promoter, which normally is constitutively active. However, this cell line, termed LDR, was selected for lack of constitutive production of GFP. GFP production can be induced by incubating the cells with histone deacetylase or DNA methyltransferase inhibitors (Martinez et al., 2006). Compounds that derepress or induce this reporter locus are identified by enumerating GFP positive cells using a laser-scanning microplate cytometer (Auld et al., 2006). This assay was screened against the MLSMR earlier (AID 597; (Johnson et al., 2008) and has been rescreened here against the expanded collection.
NCGC Assay Protocol Summary: Three hundred LDR cells in 5 uL per well were dispensed into black, clear-bottom 1536-well plates. Twenty-three nL compound was transferred to the assay plate and cells were incubated 30 hours at 37 C. Medium was removed, cells were washed two times with PBS, and GFP-positive cells were enumerated as fluorescent objects between the sizes of 20 to 120 um width and depth using an Acumen Explorer. References Auld, DS, Johnson, RL, Zhang, YQ, Veith, H, Jadhav, A, Yasgar, A, Simeonov, A, Zheng, W, Martinez, ED, Westwick, JK, Austin, CP, Inglese, J (2006). Fluorescent protein-based cellular assays analyzed by laser-scanning microplate cytometry in 1536-well plate format. Methods Enzymol 414: 566-89. Johnson, RL, Huang, W, Jadhav, A, Austin, CP, Inglese, J, Martinez, ED (2008). A quantitative high-throughput screen identifies potential epigenetic modulators of gene expression. Anal Biochem 375: 237-48. Martinez, ED, Dull, AB, Beutler, JA, Hager, GL (2006). High-content fluorescence-based screening for epigenetic modulators. Methods Enzymol 414: 21-36.
Consider `NCCCP(=O)(O)CC1CCCCC1`, for which the “GFP activation” value was inactive: 1.05%.
As to `COc1ccc2c3c([nH]c2c1)C(C)=NCC3`, the Potency result was “inactive”.
In the case of `CCC1(c2ccc(N)cc2)CCC(=O)NC1=O` (stereo not drawn), the “GFP activation” value is inactive: -1.33%.
The same measure, in the same setting: then `CC[C@@]1(c2ccc(N)cc2)CCC(=O)NC1=O`, with inactive: 0% [at 16.9 µM].
In the case of `c1ccc2c(c1)[I+]c1ccccc1-2`, the Potency entry is “inactive”.
With `COc1cccc(N2C(=O)NC(=O)/C(=C/c3ccc([N+](=O)[O-])s3)C2=O)c1`, the “GFP activation” value was inactive: 0.224%.
Turning to `C[C@]12CC[C@H](O)CC1=CCC1C2CC[C@]2(C)C(=O)CC[C@@H]12` (stereo partly drawn), the Potency result was “inactive”.
Take `O=c1oc(Cl)c(Cl)c2ccccc12`: the “GFP activation” value was inactive: 2.94%.
In the case of `Cc1nn(C)c(C)c1P(=S)(c1c(C)nn(C)c1C)N(C)C`, the “GFP activation” value was inactive: -4.1%.
On the same count and under the same terms, the result for `COc1ccc(N2C(=O)NC(=O)/C(=C/c3ccc([N+](=O)[O-])s3)C2=O)cc1` reads inactive: -1.9%.
With `CC(C)(c1ccc(OCC2CO2)cc1)c1ccc(OCC2CO2)cc1` (stereo not drawn), the Potency entry was “inactive”.
The same measure, in the same setting: then `CC(C)[C@@]1(NC(=O)[C@H]2CC3c4cccc5[nH]cc(c45)C[C@H]3N(C)C2)O[C@@]2(O)C3CCCN3C(=O)[C@@H](Cc3ccccc3)N2C1=O` (stereo partly drawn), with “inactive”; and `COC(=O)C1=C(C)NC(C)=C(C(=O)OC)C1c1ccccc1[N+](=O)[O-]`, with “inactive”.
On to `COc1cc(C(C#N)N2CCOCC2)ccc1O` (stereo not drawn), for which the “GFP activation” value is inactive: 2.32%.
On to `COc1ccc2c(c1)[nH]c1c(C)nccc12`, for which the Potency entry was “inactive”.
Regarding `COc1ccc(C[C@H]2NC[C@H](O)[C@H]2OC(C)=O)cc1`, the “GFP activation” value is inactive: 1.89%.
Same read-out and setting: then `CC(C)c1cc2c(c(O)c1O)[C@]1(C(=O)O)CCCC(C)(C)C1CC2` (stereo partly drawn), with inactive: -1.33%; and `CC[C@H]1CN2CCc3cc(OC)c(OC)cc3[C@@H]2C[C@@H]1C[C@H]1NCCc2cc(OC)c(OC)cc21`, with inactive: -0.962%; and `C=CCN1C(=O)/C(=C/c2ccc(N3CCOCC3)o2)C(=O)NC1=S`, with inactive: 0.917%.
For `CC[C@@H]1CN2CCc3cc(OC)c(OC)cc3[C@@H]2C[C@@H]1C[C@H]1NCCc2cc(OC)c(OC)cc21`, the “GFP activation” value was inactive: 2.99%.
As for `CC1=C2CC3C(CC=C4C[C@@H](O)CC[C@@]43C)[C@@H]2CC[C@]12O[C@@H]1C[C@H](C)CN[C@H]1[C@H]2C` (stereo partly drawn), the “GFP activation” value is inactive: 0%.
Still for that read-out and setting: then `COc1ccc(C[C@H]2NC[C@H](O)[C@@H]2OC(C)=O)cc1`, with inactive: 3.75%; and `O=C1CCC[C@H]2[C@@H]3CCCN4CCC[C@H](CN12)[C@H]34`, with inactive: 1.54%.
On the same count and under the same terms, then `CC1=CC(=O)C2=C(C)C[C@H](O)[C@H]3[C@H](C)C(=O)O[C@@H]3C12` (stereo partly drawn), with inactive: -0.929%.
The same measure, in the same setting: the result for `O=C1NC(=O)N(c2ccccc2)C(=O)/C1=C\c1ccc([N+](=O)[O-])s1` reads inactive: -4.17%.
`Oc1cc2c(cc1O)[C@H]1c3ccccc3CN[C@@H]1CC2`: the “GFP activation” value is inactive: 9.62%.
`COc1ccc(OC)c(N2C(=O)NC(=O)/C(=C/c3ccc([N+](=O)[O-])s3)C2=O)c1`: the “GFP activation” value is inactive: -0.129%.
On the same count and under the same terms, the result for `O=C1NC(=O)N(CCc2ccc(F)cc2)C(=O)/C1=C\C=C\c1ccccc1` reads inactive: 10.2%; that for `O=C(O)c1ccccc1-c1c2cc(Br)c(=O)cc-2oc2[c]([Hg])c(O)c(Br)cc12`, inactive: 6.4%.
Consider `N[C@@H](Cn1oc(=O)[nH]c1=O)C(=O)O`, for which the Potency result is “inactive”.
Take `CCCCC/C=C\C/C=C\C/C=C\C/C=C\CCCC(=O)NCc1ccc(O)c(OC)c1`: the “GFP activation” value is inactive: 11.4%.
The same measure, in the same setting: the result for `COc1cc(C[C@@H](C)N)c(OC)cc1I` reads inactive: 0.99%.
The same measure, in the same setting: the result for `CC(C)OCCCNC(=O)c1c(N)n(CC2CCCO2)c2nc3ccccc3nc12` (stereo not drawn) reads inactive: -19.9%; that for `CCN(CCCNS(=O)(=O)c1ccc2c(c1)oc(=O)n2C)c1cccc(C)c1`, inactive: 0%.
The same measure, in the same setting: the result for `CC1=CC(=O)C2=C(C)CC(O)C3C(C)C(=O)OC3C12` (stereo not drawn) reads inactive: -7.55%; that for `C=C(C)c1cc2cc(C(C)=O)c(O)cc2o1`, inactive: 0%.
Consider `CC1CC[C@@]2(OC1)OC1C(O)C3C4CC[C@H]5CC(O[C@@H]6O[C@@H](CO)[C@H](OC7OC(CO)C(O)C(OC8OCC(O)C(O)[C@H]8O)[C@@H]7O[C@@H]7OC(CO)[C@H](O)[C@@H](O[C@@H]8OC(CO)C(O)C(O)C8O)C7O)C(O)C6O)C(O)C[C@]5(C)C4CC[C@]3(C)C1C2C` (stereo partly drawn), for which the “GFP activation” value is inactive: -1.33%.
For `CC(C)[C@@]1(NC(=O)[C@@H]2C[C@H]3c4cccc5[nH]cc(c45)C[C@@H]3N(C)C2)O[C@@]2(O)[C@H]3CCCN3C(=O)[C@H](Cc3ccccc3)N2C1=O`, the Potency entry was “inactive”.
Take `O=C1CCCC2C3CCCN4CCCC(CN12)C34` (stereo not drawn): the “GFP activation” value was inactive: -0.962%.
The same measure, in the same setting: the result for `CC(C)[C@@]1(NC(=O)[C@@H]2C[C@@H]3c4cccc5[nH]cc(c45)C[C@H]3N(C)C2)O[C@@]2(O)[C@@H]3CCCN3C(=O)[C@H](Cc3ccccc3)N2C1=O` reads inactive: -2.91%.
For `COC[C@H]1OC(=O)c2coc3c2[C@@]1(C)C1=C(C3=O)C2CCC(=O)[C@@]2(C)C[C@H]1OC(C)=O` (stereo partly drawn), the Potency result is “inactive”.
For `N#CC(C#N)=Cc1cc(O)c(O)c([N+](=O)[O-])c1`, the Potency was active: 17.8 µM.
For `Cc1ccc(/C=C2/C(=O)NC(=O)N(CCc3ccc(F)cc3)C2=O)o1`, the “GFP activation” value was inactive: -1.09%.
The same measure, in the same setting: then `CCCN1CCc2cc(O)cc3c2C1Cc1ccc(O)c(O)c1-3` (stereo not drawn), with inactive: 1.05%.
On to `N#CC(C#N)=Cc1ccc(O)c(O)c1`, for which the Potency result is “inactive”.
`Oc1cc2c(cc1O)[C@H]1c3ccccc3CN[C@H]1CC2`: the “GFP activation” value is inactive: -0.203%.
Still for that read-out and setting: the result for `CC1=C(O)C(=O)[C@@H]2O[C@@H]2C1=O` reads inactive: 1.05%.
For the compound `COc1cc(CC(C)N)c(OC)cc1I` (stereo not drawn), the “GFP activation” value is inactive: -0.144%.
For the compound `CC(C)c1ccc(N2C(=O)NC(=O)/C(=C/C=C/c3ccco3)C2=O)cc1`, the “GFP activation” value is inactive: 0.935%.
On the same count and under the same terms, the result for `CC(C)[C@@]1(NC(=O)[C@@H]2C[C@H]3c4cccc5[nH]cc(c45)C[C@@H]3N(C)C2)O[C@]2(O)[C@H]3CCCN3C(=O)[C@H](Cc3ccccc3)N2C1=O` reads inactive: -0.99% [at 16.9 µM].
Still for that read-out and setting: the result for `CCCN1CCc2cccc3c2C1Cc1ccc(O)c(O)c1-3` (stereo not drawn) reads inactive: -0.108%; that for `CC(C)c1ccc(N2C(=O)NC(=O)/C(=C\c3cnc(-c4ccccc4)nc3)C2=O)cc1`, inactive: 2.42%.
For the compound `COc1ccc(C[C@@H]2NC[C@H](O)[C@@H]2OC(C)=O)cc1`, the “GFP activation” value was inactive: 1.37% [at 16.9 µM].
As to `CCCCNC(=O)Nc1ccc(C(O)(C(=O)OCC)C(F)(F)F)cc1` (stereo not drawn), the “GFP activation” value was inactive: -2.88%.
Same read-out and setting: then `CC[C@@H]1CN2CCc3cc(OC)c(OC)cc3[C@H]2C[C@@H]1C[C@H]1NCCc2cc(OC)c(OC)cc21`, with inactive: -0.295% [at 16.9 µM].
Same read-out and setting: then `O=C1NC(=O)N(Cc2ccccc2)C(=O)/C1=C\C=C\c1ccco1`, with inactive: 8.51%.
Turning to `NC1CCc2cc(O)c(O)cc2C1` (stereo not drawn), the Potency result was “inactive”.
In the case of `C/C(O)=C(\C#N)C(=O)Nc1cc(Br)ccc1Br`, the Potency entry is “inactive”.
